According to patent US20230143604A1, “QW DOSING OF GIP RECEPTOR AGONIST PEPTIDE COMPOUNDS AND USES THEREOF” (TAKEDA PHARMACEUTICAL COMPANY LIMITED, priority 2020, published 2023):
At least one peptide structure holds a part that was inferred or is arguable (an end, a ring closure or a residue). Starred links: 1 amine or outer side, 2 acyl side, 3 side chain; linkers in the order of their positions; H or OH if unused. Non-standard residues stand in square brackets, D forms with d. Residues, ends and D or L forms follow the SMILES beside them. Groups on a side chain read outwards from the residue. *: point of attachment. C18 diacid = O=C(O)CCCCCCCCCCCCCCCCC(=O)*; C17 diacid = O=C(O)CCCCCCCCCCCCCCCC(=O)*; γGlu = O=C(O)[C@H](CCC(=O)[*:2])N[*:1]; NMeY = CN[C@@H](Cc1ccc(O)cc1)C(=O)O; AEEA = NCCOCCOCC(=O)O; Aib = CC(C)(N)C(=O)O

These compounds were tested against T1, human GLP-1R (Homo sapiens, UniProt P43220) (assay: Human GLP1R agonist activity, intracellular cAMP accumulation). Conditions: HEK-293T cells overexpressing human GLP-1R, 1 hr, read-out: Human GLP1R cAMP EC50, HEK293T.
T1 construct: HEK-293T cells overexpressing full-length human GLP-1R; FLAG (N); host or cells: HEK-293T
Type: cell-based
Method in brief: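 cAMP accumulation is measured by HTRF after a 1 hr, room-temperature, dark exposure of thawed cells (4×10^5 cells/mL in Krebs Ringer buffer) to compound. Activity is scaled between DMSO alone as 0% and 1 nm GLP-1 as 100%.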

T1 sequence (P43220 24-463): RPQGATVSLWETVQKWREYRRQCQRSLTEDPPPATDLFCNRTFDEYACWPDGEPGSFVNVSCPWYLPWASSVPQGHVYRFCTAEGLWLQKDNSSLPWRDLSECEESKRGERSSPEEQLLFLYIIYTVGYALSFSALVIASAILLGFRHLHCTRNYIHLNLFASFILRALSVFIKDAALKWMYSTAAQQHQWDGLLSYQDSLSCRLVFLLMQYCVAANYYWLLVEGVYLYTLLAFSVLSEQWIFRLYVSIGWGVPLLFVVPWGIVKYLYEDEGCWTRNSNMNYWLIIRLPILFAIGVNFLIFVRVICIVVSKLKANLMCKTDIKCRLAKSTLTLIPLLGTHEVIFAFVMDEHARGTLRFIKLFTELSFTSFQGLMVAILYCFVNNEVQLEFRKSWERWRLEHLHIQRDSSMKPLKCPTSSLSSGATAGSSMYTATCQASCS

**Q.** How did the EC50 turn out when CC[C@H](C)[C@H](NC(=O)[C@H](CO)NC(=O)[C@H](Cc1ccc(O)cc1)NC(=O)[C@H](CC(=O)O)NC(=O)[C@H](CO)NC(=O)[C@@H](NC(=O)[C@H](Cc1ccccc1)NC(=O)[C@@H](NC(=O)CNC(=O)[C@H](CCC(=O)O)NC(=O)C(C)(C)NC(=O)[C@@H](N)Cc1ccc(O)cc1)[C@@H](C)O)[C@@H](C)CC)C(=O)N[C@@H](C)C(=O)NC(C)(C)C(=O)N[C@@H](CC(=O)O)C(=O)N[C@@H](CCCCN)C(=O)N[C@@H](C)C(=O)N[C@@H](C)C(=O)N[C@@H](CCC(N)=O)C(=O)N[C@@H](CCC(N)=O)C(=O)N[C@@H](CCCCNC(=O)COCCOCCNC(=O)COCCOCCNC(=O)CC[C@H](NC(=O)CC[C@H](NC(=O)CCCCCCCCCCCCCCCCC(=O)O)C(=O)O)C(=O)O)C(=O)N[C@@H](Cc1ccccc1)C(=O)N[C@H](C(=O)N[C@@H](CCC(=O)O)C(=O)N[C@@H](Cc1c[nH]c2ccccc12)C(=O)N[C@@H](CC(C)C)C(=O)N[C@@H](CC(C)C)C(=O)N[C@@H](C)C(=O)N[C@@H](CCC(N)=O)C(=O)N[C@@H](CCCNC(=N)N)C(=O)NCC(=O)O)C(C)C [Compound 157] (H-Y[Aib]EGTFISDYSIA[Aib]DKAAQQK([AEEA-AEEA-γGlu-γGlu-C18 diacid])FVEWLLAQRG-OH) was run?
**A.** 0.437 µM

**Q.** Which EC50 does the source give for CC[C@H](C)[C@H](NC(=O)[C@H](CCCCN)NC(=O)[C@H](CC(=O)O)NC(=O)[C@H](CC(C)C)NC(=O)[C@H](C)NC(=O)[C@@H](NC(=O)[C@H](CO)NC(=O)[C@H](Cc1ccc(O)cc1)NC(=O)[C@H](CC(=O)O)NC(=O)[C@H](CO)NC(=O)[C@@H](NC(=O)[C@H](Cc1ccccc1)NC(=O)[C@@H](NC(=O)CNC(=O)[C@H](CCC(=O)O)NC(=O)C(C)(C)NC(=O)[C@@H](N)Cc1ccc(O)cc1)[C@@H](C)O)[C@@H](C)CC)[C@@H](C)CC)C(=O)N[C@@H](C)C(=O)N[C@@H](CCC(N)=O)C(=O)NC(C)(C)C(=O)N[C@@H](CCCCNC(=O)COCCOCCNC(=O)COCCOCCNC(=O)CC[C@H](NC(=O)CC[C@H](NC(=O)CCCCCCCCCCCCCCCC(=O)O)C(=O)O)C(=O)O)C(=O)N[C@@H](Cc1ccccc1)C(=O)N[C@H](C(=O)N[C@@H](CCC(=O)O)C(=O)N[C@@H](Cc1c[nH]c2ccccc12)C(=O)N[C@@H](CC(C)C)C(=O)N[C@@H](CC(C)C)C(=O)N[C@@H](C)C(=O)N[C@@H](CCC(N)=O)C(=O)N[C@@H](CCCNC(=N)N)C(=O)NCC(=O)O)C(C)C [Compound 132] (H-Y[Aib]EGTFISDYSIALDKIAQ[Aib]K([AEEA-AEEA-γGlu-γGlu-C17 diacid])FVEWLLAQRG-OH) here?
**A.** 0.0661 µM

**Q.** CC[C@H](C)[C@H](NC(=O)[C@H](CCCCN)NC(=O)[C@H](CC(=O)O)NC(=O)[C@H](CC(C)C)NC(=O)C(C)(C)NC(=O)[C@@H](NC(=O)[C@H](CO)NC(=O)[C@H](Cc1ccc(O)cc1)NC(=O)[C@H](CC(=O)O)NC(=O)[C@H](CO)NC(=O)[C@@H](NC(=O)[C@H](Cc1ccccc1)NC(=O)[C@@H](NC(=O)CNC(=O)[C@H](CCC(=O)O)NC(=O)C(C)(C)NC(=O)[C@@H](N)Cc1ccc(O)cc1)[C@@H](C)O)[C@@H](C)CC)[C@@H](C)CC)C(=O)N[C@@H](C)C(=O)N[C@@H](CCC(N)=O)C(=O)N[C@@H](CCC(N)=O)C(=O)N[C@@H](CCCCNC(=O)COCCOCCNC(=O)COCCOCCNC(=O)CC[C@H](NC(=O)CC[C@H](NC(=O)CCCCCCCCCCCCCCCC(=O)O)C(=O)O)C(=O)O)C(=O)N[C@@H](Cc1ccccc1)C(=O)N[C@H](C(=O)N[C@@H](CCC(=O)O)C(=O)N[C@@H](Cc1c[nH]c2ccccc12)C(=O)N[C@@H](CC(C)C)C(=O)N[C@@H](CC(C)C)C(=O)N[C@@H](C)C(=O)N[C@@H](CCC(N)=O)C(=O)N[C@@H](CCCNC(=N)N)C(=O)NCC(=O)O)C(C)C [Compound 129] (H-Y[Aib]EGTFISDYSI[Aib]LDKIAQQK([AEEA-AEEA-γGlu-γGlu-C17 diacid])FVEWLLAQRG-OH) was tested. Which EC50 did it give?
**A.** 0.115 µM

**Q.** For CC[C@H](C)[C@H](NC(=O)[C@H](CO)NC(=O)[C@H](Cc1ccc(O)cc1)NC(=O)[C@H](CC(=O)O)NC(=O)[C@H](CO)NC(=O)[C@@H](NC(=O)[C@H](Cc1ccccc1)NC(=O)[C@@H](NC(=O)CNC(=O)[C@H](CCC(=O)O)NC(=O)C(C)(C)NC(=O)[C@@H](N)Cc1ccc(O)cc1)[C@@H](C)O)[C@@H](C)CC)C(=O)N[C@@H](C)C(=O)NC(C)(C)C(=O)N[C@@H](CC(=O)O)C(=O)N[C@@H](CCCCN)C(=O)N[C@H](C(=O)N[C@@H](CCCCNC(=O)COCCOCCNC(=O)COCCOCCNC(=O)CC[C@H](NC(=O)CCCCCCCCCCCCCCCCC(=O)O)C(=O)O)C(=O)N[C@@H](CCC(N)=O)C(=O)N[C@@H](C)C(=O)N[C@@H](CC(=O)O)C(=O)N[C@@H](Cc1ccccc1)C(=O)N[C@H](C(=O)N[C@@H](CCC(=O)O)C(=O)N[C@@H](Cc1c[nH]c2ccccc12)C(=O)N[C@@H](CC(C)C)C(=O)N[C@@H](CC(C)C)C(=O)N[C@@H](C)C(=O)N[C@@H](CCC(N)=O)C(=O)N[C@@H](CCCNC(=N)N)C(=O)NCC(=O)O)C(C)C)[C@@H](C)CC [Compound 166] (H-Y[Aib]EGTFISDYSIA[Aib]DKIK([AEEA-AEEA-γGlu-C18 diacid])QADFVEWLLAQRG-OH), which EC50 is on record?
**A.** 0.0741 µM

**Q.** Which EC50 does the source give for CC[C@H](C)[C@H](NC(=O)[C@H](Cc1ccccc1)NC(=O)[C@@H](NC(=O)CNC(=O)[C@H](CCC(=O)O)NC(=O)C(C)(C)NC(=O)[C@H](Cc1ccc(O)cc1)NC)[C@@H](C)O)C(=O)N[C@@H](CO)C(=O)N[C@@H](CC(=O)O)C(=O)N[C@@H](Cc1ccc(O)cc1)C(=O)N[C@@H](CO)C(=O)N[C@H](C(=O)NC(C)(C)C(=O)N[C@@H](CCCCNC(=O)COCCOCCNC(=O)COCCOCCNC(=O)CC[C@H](NC(=O)CC[C@H](NC(=O)CCCCCCCCCCCCCCCC(=O)O)C(=O)O)C(=O)O)C(=O)N[C@@H](CC(=O)O)C(=O)N[C@@H](CCCNC(=N)N)C(=O)NC(C)(C)C(=O)N[C@@H](C)C(=O)N[C@@H](CCC(N)=O)C(=O)NC(C)(C)C(=O)N[C@@H](CC(N)=O)C(=O)N[C@@H](Cc1ccccc1)C(=O)N[C@H](C(=O)N[C@@H](CC(N)=O)C(=O)N[C@@H](Cc1c[nH]c2ccccc12)C(=O)N[C@@H](CC(C)C)C(=O)N[C@@H](CC(C)C)C(=O)N[C@@H](C)C(=O)N[C@@H](CCC(N)=O)C(=O)N[C@@H](CCCNC(=N)N)C(=O)NCC(=O)NCC(=O)NCC(=O)NCC(=O)N[C@@H](CO)C(N)=O)C(C)C)[C@@H](C)CC [Compound 32] (H-[NMeY][Aib]EGTFISDYSI[Aib]K([AEEA-AEEA-γGlu-γGlu-C17 diacid])DR[Aib]AQ[Aib]NFVNWLLAQRGGGGS-NH2) here?
**A.** ≥ 1 µM

**Q.** For CC[C@H](C)[C@H](NC(=O)[C@H](CO)NC(=O)[C@H](Cc1ccc(O)cc1)NC(=O)[C@H](CC(=O)O)NC(=O)[C@H](CO)NC(=O)[C@@H](NC(=O)[C@H](Cc1ccccc1)NC(=O)[C@@H](NC(=O)CNC(=O)[C@H](CCC(=O)O)NC(=O)C(C)(C)NC(=O)[C@@H](N)Cc1ccc(O)cc1)[C@@H](C)O)[C@@H](C)CC)C(=O)N[C@@H](C)C(=O)NC(C)(C)C(=O)N[C@@H](CC(=O)O)C(=O)N[C@@H](CCCCN)C(=O)N[C@@H](C)C(=O)N[C@@H](CCCCNC(=O)COCCOCCNC(=O)COCCOCCNC(=O)CC[C@H](NC(=O)CCCCCCCCCCCCCCCCC(=O)O)C(=O)O)C(=O)N[C@@H](CCC(N)=O)C(=O)N[C@@H](CCC(N)=O)C(=O)N[C@@H](CC(=O)O)C(=O)N[C@@H](Cc1ccccc1)C(=O)N[C@H](C(=O)N[C@@H](CCC(=O)O)C(=O)N[C@@H](Cc1c[nH]c2ccccc12)C(=O)N[C@@H](CC(C)C)C(=O)N[C@@H](CC(C)C)C(=O)N[C@@H](C)C(=O)N[C@@H](CCC(N)=O)C(=O)N[C@@H](CCCNC(=N)N)C(=O)NCC(=O)O)C(C)C [Compound 164] (H-Y[Aib]EGTFISDYSIA[Aib]DKAK([AEEA-AEEA-γGlu-C18 diacid])QQDFVEWLLAQRG-OH), which EC50 is on record?
**A.** > 1 µM

**Q.** With CC[C@H](C)[C@H](NC(=O)[C@H](CO)NC(=O)[C@H](Cc1ccc(O)cc1)NC(=O)[C@H](CC(=O)O)NC(=O)[C@H](CO)NC(=O)[C@@H](NC(=O)[C@H](Cc1ccccc1)NC(=O)[C@@H](NC(=O)CNC(=O)[C@H](CCC(=O)O)NC(=O)C(C)(C)NC(=O)[C@@H](N)Cc1ccc(O)cc1)[C@@H](C)O)[C@@H](C)CC)C(=O)N[C@@H](C)C(=O)N[C@@H](CC(C)C)C(=O)N[C@@H](CC(=O)O)C(=O)N[C@@H](CCCCN)C(=O)NC(C)(C)C(=O)N[C@@H](CCCCNC(=O)COCCOCCNC(=O)COCCOCCNC(=O)CC[C@H](NC(=O)CCCCCCCCCCCCCCCCC(=O)O)C(=O)O)C(=O)N[C@@H](CCC(N)=O)C(=O)N[C@@H](C)C(=O)N[C@@H](CC(=O)O)C(=O)N[C@@H](Cc1ccccc1)C(=O)N[C@H](C(=O)N[C@@H](CCC(=O)O)C(=O)N[C@@H](Cc1c[nH]c2ccccc12)C(=O)N[C@@H](CC(C)C)C(=O)N[C@@H](CC(C)C)C(=O)N[C@@H](C)C(=O)N[C@@H](CCC(N)=O)C(=O)N[C@@H](CCCNC(=N)N)C(=O)NCC(=O)O)C(C)C [Compound 162] (H-Y[Aib]EGTFISDYSIALDK[Aib]K([AEEA-AEEA-γGlu-C18 diacid])QADFVEWLLAQRG-OH) as the compound, how does the EC50 read?
**A.** 0.589 µM
